In all, about 110,000 compounds went through this assay and about 40 (0.04%) were called active. Inconclusive means that the source gave no clear call. Such entries were picked first, then a sample of the others. Calls follow the shape of the dose curve; as a rule, active = well fitted curve in the direction sought with a large enough effect in the signal ratio (not every such curve was filed as active); inconclusive = small, poorly fitted or top-dose-only effect, or a change in a side signal; inactive = flat fitted curve, though single readings scatter; the % refers to the signal ratio. Potencies beside an inconclusive call are fits to weak or partial responses and may not hold up.
Assay: IkB Signaling;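 as to IkBa stabilization activation: 0% = basal untreated cells and 100% = reference inhibitor full response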
Settings: ABC-DLBCL IkBa-CBG/CBR dual luciferase ratio (green luciferase fused to IkBa over red control in OCI-Ly3 lymphoma cells), 4 h; IkBa stabilization activation: at 57.1 µM (top of the series), scaled: untreated 0%, proteasome inhibitor 100% unless noted
Method in brief: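 In this assay, an IκBα–CBG68 fusion accumulates when IKK-driven degradation is blocked; native CBR normalizes for cell number. OCI-Ly3 cells were treated 4 h with compound and doxycycline, then green and red light read after Chroma-Glo addition.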
Potency is read from the fitted curve at half-maximal effect.

Structure (SMILES) | IkBa stabilization activation | Potency
CCN(C(=O)CCn1cnc2onc(-c3ccc(F)cc3)c2c1=O)c1ccc(OC)cc1 | inactive | –
CCc1cccc(-n2nnc(-c3nc(-c4ccccc4Cl)no3)c2N)c1 | inactive | –
O=C(CSc1nc2c(c(=O)[nH]1)CN(Cc1ccc3c(c1)OCO3)CC2)Nc1cccc(Cl)c1 | inconclusive: -1.12% [signal inhibitor] | –
CS(=O)(=O)c1ncc(Cl)c(C(=O)Nc2ccc(N3CCOCC3)cc2)n1 | inconclusive: 0.13% [signal inhibitor] | –
Cn1nnc2c(NCc3ccccc3Cl)ncnc21 | inconclusive: 14.1% [signal inhibitor] | –
COc1ccccc1-n1cnc2cc(NS(=O)(=O)c3ccccc3)ccc21 | inconclusive: 3.81% [signal inhibitor] | –
Cc1nc2c(c(C)nn2-c2ccccc2)c(C)c1CCC(=O)NCCc1ccccc1 | inconclusive: 1.09% [signal inhibitor] | –
CC(C)C(=O)Nc1ccc(NC(=O)c2ccccn2)cn1 | inactive | –
Cc1cccc(Cn2cc3c(=O)n(CC(=O)Nc4ccc(C)c(F)c4)nc-3c3cc(F)ccc32)c1 | inconclusive: 0.00101% [signal inhibitor] | –
COc1ccc(S(=O)(=O)N(Cc2ccccc2)Cc2nc3ccccc3c(=O)[nH]2)cc1 | inconclusive: 2.12% [signal inhibitor] | –
CCc1cccc(NS(=O)(=O)c2c(C)nc3sc(CC)nn3c2=O)c1 | inconclusive: 3.83% [signal inhibitor] | –
COc1ccc(N2CC(NC(=O)c3cc4ccccc4o3)CC2=O)cc1OC (stereo not drawn) | inactive | –
COc1ccc(S(=O)(=O)Cc2ccc(C(=O)N3CCN(c4cccc(C)c4)C(C)C3)o2)cc1 (stereo not drawn) | – | inconclusive: 31.6 µM [signal inhibitor, single point]
Cc1ccc(NC(=O)Cn2c(=O)n(CCc3ccccc3)c(=O)c3c4c(sc32)CCCC4)c(C)c1 | inconclusive: 2.17% [signal inhibitor] | –
Cc1ccc(N2CC(NC(=O)c3ccc(S(=O)(=O)N4CCCCC4)cc3)CC2=O)cc1 (stereo not drawn) | inconclusive: -0.205% [signal inhibitor] | –
COc1cc(NC(=O)Cc2cccs2)cc(OC)c1 | inactive | –
CCCCn1c(=O)n(Cc2cccc(F)c2)c(=O)c2c1ncn2Cc1ccco1 | inconclusive: 1.94% [signal inhibitor] | –
CCOc1ccc(-c2nonc2NC(=O)c2oc3ccc(Br)cc3c2C)cc1 | inconclusive: 16.1% [signal inhibitor] | –
O=C(CSc1nnc(-c2ccccc2)c(-c2ccccc2)n1)NC1CCCCC1 | inactive | –
Cc1ccc(N2CC(NC(=O)Cc3cccs3)CC2=O)cc1C (stereo not drawn) | inactive | –
CCOC(=O)N1CCc2c(sc(NCc3cccc(F)c3)c2C(=O)Nc2ccccc2OCC)C1 | inconclusive: 0.809% [signal inhibitor] | –
CCCCOc1ccccc1C1C(C(=O)OC)=CN(CC)C=C1C(=O)OC | inconclusive: -1.73% [signal inhibitor] | –

Structure (SMILES) | IkBa stabilization activation | Potency
COc1ccc2c(c1)CCc1c(C(=O)Nc3ccc(F)c(Cl)c3)noc1-2 | – | inconclusive: 0.126 µM [signal inhibitor]
COc1ccc(NC(=O)CSc2nc3ccccc3c(=O)n2CCNC(C)=O)c(OC)c1 | inactive | –
CCc1nc2ccc(C(=O)N3CCN(c4ccccc4)CC3)cc2nc1CC | inactive | –
Cn1c(/N=C/c2ccc3c(c2)OCO3)nc2ccccc21 | inactive | –
Cc1ccc(CNC(=O)c2cc3c(s2)-c2ccccc2SC3)cc1 | inconclusive: 8.8% [signal inhibitor] | –
COc1ccc(Cl)cc1NC(=O)CCS(=O)(=O)c1nc(-c2cccs2)cc(C(F)(F)F)n1 | inconclusive: 6.09% [signal inhibitor] | –
c1ccc(CSc2nnc(-c3cccs3)n2Cc2ccco2)cc1 | inactive | –
CC(C)COc1ccc(C(=O)Nc2cccc(-c3nc4ccccc4[nH]3)c2)cc1 | – | inconclusive: 15.8 µM [signal inhibitor, partial curve]
COc1ccccc1-c1cc2nc(C)c(CCC(=O)Nc3ccc(Br)c(C)c3)c(C)n2n1 | – | inconclusive: 12.6 µM [signal inhibitor]
CCOc1ccc2[nH]c(=O)c(CN(Cc3ccco3)C(CC)c3nnnn3Cc3ccccc3)cc2c1 (stereo not drawn) | inconclusive: 3.14% [signal inhibitor] | –
CC(C)N(C(=O)CSc1nc2ccc(Cl)cc2[nH]1)c1ccccc1 | inconclusive: 2.74% [signal inhibitor] | –
O=c1c(-c2cccs2)nc2cnc(N3CCOCC3)nc2n1Cc1ccc(F)cc1 | inactive: 3.63% [at 11.4 µM, scaled: untreated 0%, proteasome inhibitor 100%] | –
COc1ccccc1CNC(=O)CCC1N=C2c3ccccc3N=C(SCc3cccc(Cl)c3)N2C1=O (stereo not drawn) | inconclusive: 1.33% [signal inhibitor] | –
O=C(c1ccc(F)cc1)N1c2nc(-c3ccco3)nn2C2(CCCCC2)[C@@H]2CCCC[C@@H]21 | inactive | –
O=C(Nc1ccccc1C(=O)O)c1cccc(NC(=O)c2ccc(Br)o2)c1 | inconclusive: 10.4% [signal inhibitor] | –
C[C@@]12CC[C@H]3[C@H](CC=C4C[C@@H](O)CC[C@@]43C)[C@@H]1CC[C@@H]2N(CCO)CCO | inactive: -1.46% [at 11.4 µM, scaled: untreated 0%, proteasome inhibitor 100%] | –
COc1ccc(CCCc2nnc(SCC(=O)Nc3ncc(C)s3)o2)cc1 | inactive | –
COc1ccc(S(=O)(=O)N(CCc2ccccc2)CC(=O)Nc2ccc(C)c(C)c2)cc1OC | inconclusive: 16.9% [signal inhibitor] | –
CCOc1cc(-c2nnc(SCC(=O)Nc3ccc(F)c(F)c3)nc2-c2ccc(OC)c(OCC)c2)ccc1OC | inconclusive: 14.1% [signal inhibitor] | –
O=C(Nc1cccc(-c2nc3ccccc3o2)c1)c1ccc(-c2ccc(Br)cc2)o1 | inconclusive: 7.55% [signal inhibitor] | –
O=S(=O)(Nc1ccc(-c2ccc(N3CCCC3)nn2)cc1)c1ccc(Cl)cc1 | inconclusive: -3.89% [signal inhibitor] | –
